# The campaign covered roughly 52,000 compounds. About 4,300 (8.3%) were called active. Cut-off read from the data, not from the text of the source: active = survival mostly below about 52% (no sharp cut-off); inactive = mostly above about 56%. This is one part of the list.
# System: DeltatarO mutant
# Assay: S. aureus survival, RN4220 and DeltatarO strains – OD600, teichoic acid synthesis inhibitors, primary screen (AID 463173)
# Conditions: S. aureus RN4220 wild type/DeltatarO growth, OD600, 18 h, stronger effect = lower value, screened at 18.75 µg/mL (by protocol)
row,SMILES,survival
1,Cc1ccc(CNC(=O)CSc2c3c(nc4cc(Cl)ccc24)CCCC3)cc1,inactive: 80%
2,CCCNC(=O)C(C)n1nc(C)c2c(C)n(-c3ccccc3)nc2c1=O (stereo not drawn),inactive: 102%
3,O=c1oc2cc(O)ccc2cc1-c1nnc(Nc2ccccc2F)s1,inactive: 59%
4,CCOC(=O)CSc1nc(-c2ccc(Cl)cc2)cc(C(F)(F)F)c1C#N,inactive: 69%
5,CC1Cc2ccccc2N1C(=O)CSc1nnc2n1C(C)(C)Cc1ccccc1-2 (stereo not drawn),inactive: 77%
6,CN1C(=O)c2ccccc2Sc2ccc(NC(=O)NCc3cccc(Cl)c3)cc21,inactive: 78%
7,Cc1ccc(NC(=O)CCNS(=O)(=O)c2cccc3nonc23)cc1Cl,active: 39%
8,Cc1cn2c(=O)cc(COC(=O)c3cccc(NC(=O)COc4ccccc4C)c3)nc2s1,inactive: 85%
9,CCC(=O)n1nc(-c2ccc(OC)cc2)nc1SC,inactive: 86%
10,Cc1ccccc1C(=O)NCCc1csc(-c2ccc(C(F)(F)F)cc2)n1,inactive: 89%
11,COc1ccc(-n2c(-c3ccc(C)cc3)cc3c2CC(C)(C)CC3=O)c(OC)c1,inactive: 101%
12,Cc1ccc(Cc2nc3ccccc3nc2SCC(=O)N2CCCc3ccccc32)cc1,inactive: 95%
13,CSCCC(NS(=O)(=O)c1ccc2c(c1)oc(=O)n2C)C(=O)N1CCN(c2cc(Cl)ccc2C)CC1 (stereo not drawn),inactive: 75%
14,Cc1cc2c(cc3c(SCc4ccc(Cl)cc4)nnc(C)n32)o1,inactive: 57%
15,COc1ccc(NC(=O)CSc2oc(-c3ccc(C)cc3)nc2S(=O)(=O)c2ccc(C)cc2)c(OC)c1,inactive: 60%
16,CCN(CCCNC(=O)c1cc2cc3cc(OC)ccc3nc2s1)c1cccc(C)c1,active: 46%
17,Cc1cccc(N2CCN(C(=O)c3nn(C)c4c3CSc3ccccc3-4)CC2C)c1 (stereo not drawn),inactive: 82%
18,Cc1ccc(-c2nc3sccn3c2Nc2ccccc2C)cc1,inactive: 48%
19,COc1cccc(CNC(=O)CN2C(=O)CSc3ccc(S(=O)(=O)N(C)C)cc32)c1,inactive: 86%
20,CC1CCN(C(=O)c2cnn(-c3ccc(Cl)cc3)c2C2CCN(C(=O)OC(C)(C)C)CC2)CC1,inactive: 76%
21,CC(C)(C)C1CCc2c(sc(NC(=O)c3cccc(Cl)c3)c2C(N)=O)C1 (stereo not drawn),inactive: 70%
22,Cn1c(SCC(=O)Nc2ccccc2)nc2ccccc2c1=O,inactive: 95%

row,SMILES,survival
1,COc1nc(-c2ccccc2)ccc1-c1noc(C(C)C)n1,inactive: 91%
2,CN(C)C(=O)CCSc1nc2cc(Cl)ccc2o1,inactive: 84%
3,Cc1ccc(NS(=O)(=O)c2ccc3c4c(cccc24)C(=O)N3)c(C)c1,inactive: 58%
4,CCn1cc(C(=O)NCc2ccccc2)c(=O)c2cc(S(=O)(=O)N3CCCCC3)ccc21,inactive: 79%
5,Cc1ccc(C(NC(=O)Cc2cccs2)C(=O)Nc2ccc(C(C)C)cc2)cc1 (stereo not drawn),inactive: 60%
6,CN(Cc1ccccc1)S(=O)(=O)c1ccc(F)c(C(=O)Nc2ccccc2C(F)(F)F)c1,active: -5%
7,Cc1cccc(-c2nc3c4ccccc4nc(NCc4ccccc4Cl)n3n2)c1,inactive: 138%
8,O=C(COc1ccccc1)N(Cc1cccnc1)c1nc2ccc(Cl)cc2s1,inactive: 87%
9,Nc1n[nH]c2nc(C(F)(F)F)cc(=O)n12,inactive: 62%
10,CNS(=O)(=O)c1cn(CC(=O)N2CCN(c3ccc(OC)cc3)CC2)cc1S(=O)(=O)NC,inactive: 69%
11,O=C1OCc2c1[nH]c(=O)[nH]c2=O,inactive: 101%
12,CCc1cccc(NC(=O)CNS(=O)(=O)c2ccc3nc(C)sc3c2)c1,inactive: 68%
13,COc1ccc2c(c1)c1c(c(=O)n(-c3cccc(C)c3)c(=O)n1CC(=O)Nc1c(C)cc(C)cc1C)n2C,inactive: 158%
14,Cc1cn(C)c(CC(=O)NCc2ccc(F)cc2)c1C(=O)O,inactive: 94%
15,Cc1cc(C)cc(NC(=O)CN2C(=O)COc3ccc(S(=O)(=O)Nc4ccccc4)cc32)c1,inactive: 77%
16,CCOC(=O)c1ccccc1NC(=O)CSc1nc2ncccc2o1,inactive: 72%
17,CCN1CCN(Cc2c(O)ccc3oc(C)c(C(=O)Nc4ccc(OC)c(Cl)c4)c23)CC1,inactive: 66%
18,CC1=C(c2ccc(C)cc2)S(=O)(=O)N=C1N1CCN(c2ccccc2)CC1,inactive: 87%
19,CCC(C)NC(=O)c1cn(CC)c2ccc(S(=O)(=O)N3CCCCC3)cc2c1=O (stereo not drawn),inactive: 84%
20,Cc1ccc(CSC2=Nc3ccccc3C3=NC(CC(=O)NC4CCCCC4)C(=O)N23)c(C)c1 (stereo not drawn),inactive: 67%
21,CCn1c(=Nc2ccc(N3CCOCC3)cc2)ccc2ccccc21,inactive: 66%
22,COc1ccc2nc3sc(C(=O)Nc4cc(Cl)c(OC)cc4OC)cc3cc2c1,inactive: 61%

row,SMILES,survival
1,Cc1c(NC(=O)c2cc(-c3cccc(Cl)c3)on2)c(=O)n(-c2ccccc2)n1C,inactive: 55%
2,O=C(NCCC1=CCCCC1)c1ccc2c(c1)N(Cc1ccc(F)cc1)C(=O)c1ccccc1S2(=O)=O,inactive: 115%
3,O=C(CSc1nncn2c1cc1sccc12)Nc1ccccc1C(F)(F)F,inactive: 103%
4,CCOC(=O)c1c(C)oc2nc(C)nc(NCc3ccc(C)cc3)c12,inactive: 76%
5,CCN1CCN(Cc2c(O)ccc3c(=O)c(Oc4ccccc4Cl)c(C(F)(F)F)oc23)CC1,inactive: 90%
6,COCCCNc1nc2c(-c3ccccc3)nnn2c2ccccc12,inactive: 78%
7,CCOCCCn1c(=N)c(C(=O)NCc2ccco2)cc2c(=O)n3ccccc3nc21,inactive: 67%
8,COc1ccc(CC(=O)NC2CC(=O)N(c3ccc4c(c3)OCCO4)C2)cc1 (stereo not drawn),inactive: 107%
9,CC(C)NC(=O)c1ccc(Cn2c(=O)c3cccn3c3cccnc32)cc1,active: 44%
10,Nc1c(C(=O)Nc2cccc(Cl)c2)sc2nc3c(cc12)CN(Cc1ccccc1)CC3,inactive: 69%
11,CCOC(=O)c1c(NC(=O)C(C)Sc2cn(CCNC(=O)c3ccc(OC)c(OC)c3)c3ccccc23)sc2c1CCC2 (stereo not drawn),inactive: 127%
12,CCOCCCn1c(=N)c(S(=O)(=O)c2ccc(C)cc2)cc2c(=O)n3ccccc3nc21,inactive: 136%
13,O=c1oc2ccccc2n1CN1CCCCC1,inactive: 95%
14,COc1cccc(N2CCN(C(=O)c3c(C)oc4ncnc(N5CCCCC5)c34)CC2)c1,inactive: 118%
15,Cc1ccc(-c2nnc(Nc3ccc(O)cc3)c3ccccc23)cc1S(=O)(=O)NCc1nc2ccccc2[nH]1,inactive: 74%
16,COc1cccc(-n2c(=O)c3sc4ccccc4c3n(CC(=O)Nc3ccc(F)cc3F)c2=O)c1,inactive: 64%
17,Cc1ccoc1C(=O)Nc1ccccc1C(=O)O,inactive: 96%
18,COc1ccc(N2CC3=C(C2=O)C(c2ccc(Br)cc2)NC(=O)N3C)cc1 (stereo not drawn),inactive: 121%
19,Cc1cc(Nc2sc(C(=O)c3ccc(F)cc3)c(N)c2C(=O)Nc2ccc(F)cc2)ccc1Cl,inactive: 89%
20,Cc1ccc(Cl)cc1N1CCN(CCCNc2ncnc3onc(-c4ccc(F)cc4)c23)CC1,inactive: 80%
21,CC(C)CN(CCCNC(=O)CN1C(=O)COc2ccc(S(=O)(=O)N3CCCCCC3)cc21)CC(C)C,inactive: 109%
22,COc1cc(NC(=O)CSc2nc(C)c(C(=O)Nc3ccccc3)c(-c3ccc(OC)c(OC)c3)c2C#N)c(OC)cc1Cl,inactive: 61%

row,SMILES,survival
1,COC(=O)c1ccccc1NC(=O)c1cc2nc(-c3ccccc3)cc(-c3ccccc3)n2n1,inactive: 45%
2,Cc1cccc(N2CCN(S(=O)(=O)c3ccc4oc(=O)c5ncn(C)c5c4c3)CC2C)c1 (stereo not drawn),inactive: 77%
3,COc1ccc(N(C(=O)COc2c(C)cccc2C)S(=O)(=O)c2ccc(Cl)cc2)cc1,inactive: 73%
4,CC(NC(=O)c1ccc(-c2ccccc2)cc1)C(=O)O (stereo not drawn),inactive: 97%
5,Cc1ccccc1C(=O)NCC(c1cccnc1)N1CCc2ccccc21 (stereo not drawn),active: 44%
6,COc1ccc(NC(=O)C2(c3cccs3)CCOCC2)cc1Cl,inactive: 91%
7,CCOC(=O)c1c(C)sc(-c2c(-c3ccc4c(c3)OCCO4)[nH]c3c2c(=O)[nH]c(=O)n3C)c1O,inactive: 106%
8,COc1cc(NC(=O)c2ccco2)c(OC)cc1NC(=O)CSc1ncc(-c2ccc(F)cc2)[nH]1,inactive: 96%
9,COc1ccccc1NC(=O)CCn1nc(-c2ccccc2)c2ccccc2c1=O,active: 42%
10,Cc1cc(C)cc(OCc2cc(=O)n3cc(C)sc3n2)c1,inactive: 81%
11,COc1ccccc1N1CCN(c2nc3ccc(C)cc3nc2-n2nc(C)cc2C)CC1,active: -5%
12,Cc1cccc(NCc2nnc3n2CCCCC3)c1C,inactive: 96%
13,CCCN1CCN(CCCNC(=O)c2ccc3c(c2)sc2nc(-c4ccc(C)cc4)cn23)CC1,active: 18%
14,CN(C(=O)c1ccc2c(c1)N(Cc1ccccc1F)C(=O)c1ccccc1S2)C1CCCCC1,inactive: 94%
15,CCOC(=O)c1c(C)n(-c2ccccc2)c2ccc(OC(=O)c3ccc(OCC)c(OCC)c3)cc12,inactive: 136%
16,Cc1cccc(-c2noc(-c3ccc(NCC4CCCO4)c([N+](=O)[O-])c3)n2)c1 (stereo not drawn),inactive: 103%
17,CCCOc1ccc(OC(=O)c2c(-c3ccccc3Cl)noc2C)cc1,inactive: 84%
18,COc1ccc(-c2nn3c(-c4ccc(C)cc4)nnc3c3ccccc23)cc1,inactive: 77%
19,COc1cccc(CN2C(=O)c3ccccc3Sc3ccc(C(=O)NCCc4ccc(Cl)cc4)cc32)c1,inactive: 80%
20,COc1ccc(NC(=O)c2ccc3c(c2)c(C)c(C)n3Cc2ccc(F)cc2)c(OC)c1,inactive: 72%
21,CCc1ccc(OCC(=O)N(Cc2ccco2)Cc2ccco2)cc1,inactive: 57%
22,COc1ccc(CNC(=O)CCc2nc3cccnc3n2Cc2ccccc2)cc1,inactive: 120%
